# Laboratory results published in article PMC4336329 (PLoS ONE, 2015).
# Among all 310,000 compounds or so, about 2,200 (0.71%) showed an effect of 50% or more. The effect is printed as a negative number. The list shows a part of the results.
# Target: human ether-à-go-go-related gene (hERG) potassium channel (human, UniProt Q12809)
# Experiment: primary screen, population patch clamp on CHO cells stably expressing hERG
# Chain of human ether-à-go-go-related gene (hERG) potassium channel (Q12809 whole entry, looked up): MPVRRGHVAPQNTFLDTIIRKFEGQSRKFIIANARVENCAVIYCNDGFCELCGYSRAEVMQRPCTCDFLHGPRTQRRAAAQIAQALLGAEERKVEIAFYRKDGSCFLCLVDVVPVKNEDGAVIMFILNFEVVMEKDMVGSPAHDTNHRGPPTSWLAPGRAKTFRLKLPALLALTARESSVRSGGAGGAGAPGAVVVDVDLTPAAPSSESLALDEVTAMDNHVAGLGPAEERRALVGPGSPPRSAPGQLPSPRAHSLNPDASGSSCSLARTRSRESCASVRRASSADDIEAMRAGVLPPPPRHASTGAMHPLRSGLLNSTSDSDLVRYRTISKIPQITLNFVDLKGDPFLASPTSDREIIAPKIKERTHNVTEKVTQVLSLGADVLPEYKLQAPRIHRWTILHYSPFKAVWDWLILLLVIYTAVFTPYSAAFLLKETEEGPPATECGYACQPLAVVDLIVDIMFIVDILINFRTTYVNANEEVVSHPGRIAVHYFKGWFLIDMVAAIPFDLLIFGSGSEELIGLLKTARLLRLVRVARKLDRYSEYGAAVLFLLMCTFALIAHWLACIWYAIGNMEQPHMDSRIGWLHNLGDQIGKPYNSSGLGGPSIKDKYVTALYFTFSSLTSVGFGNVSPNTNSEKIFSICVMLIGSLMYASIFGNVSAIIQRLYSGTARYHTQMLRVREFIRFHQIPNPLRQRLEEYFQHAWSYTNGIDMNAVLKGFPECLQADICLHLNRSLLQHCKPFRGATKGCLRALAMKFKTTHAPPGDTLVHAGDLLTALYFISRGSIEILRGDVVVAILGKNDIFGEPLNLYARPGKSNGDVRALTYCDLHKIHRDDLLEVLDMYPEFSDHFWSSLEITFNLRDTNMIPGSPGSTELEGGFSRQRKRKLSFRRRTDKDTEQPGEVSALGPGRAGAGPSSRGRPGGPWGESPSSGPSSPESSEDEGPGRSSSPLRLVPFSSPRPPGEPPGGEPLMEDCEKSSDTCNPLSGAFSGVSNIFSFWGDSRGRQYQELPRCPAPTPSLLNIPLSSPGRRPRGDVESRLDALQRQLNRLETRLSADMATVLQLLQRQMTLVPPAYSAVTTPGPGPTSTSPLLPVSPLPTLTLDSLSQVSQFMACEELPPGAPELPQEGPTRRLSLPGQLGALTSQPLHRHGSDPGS
row,Structure (SMILES),"hERG current change (%, negative = inhibition) at 1uM"
1,CC(C)CNC(=S)Nc1ccc(S(N)(=O)=O)cc1,10.7%
2,O=C(CN1CCOCC1)Nc1nc2ccc(F)cc2s1,6.59%
3,O=C(CSc1ccc(Cl)cc1)Nc1cc(-c2nc3ncccc3o2)ccc1Cl,0.8%
4,CC(C)(C)c1ccc(C(=O)NNC(=S)NCC2CCCO2)cc1 (stereo not drawn),13.7%
5,Cn1ncc(Cl)c1C(=O)Nc1nnc(C2CC2)s1,9.46%
6,COC(=O)Cn1c(CN2CCOCC2)nc2c1c(=O)n(C)c(=O)n2C,12.2%
7,CCOc1ccc(N2CC(=O)SC2=S)cc1,1.02%
8,O=C(/C=C/c1ccc(Cl)cc1)NCc1ccncc1,9.09%
9,Cc1cc(O)c(C(C[N+](=O)[O-])c2ccc(Cl)cc2)c(=O)o1 (stereo not drawn),3.67%
10,O=c1cc(-c2ccccc2)nc2nc(-c3ccccc3)[nH]n12,15.4%
11,CC(NCc1cc(Br)ccc1OCC(N)=O)C12CC3CC(CC(C3)C1)C2.Cl (stereo not drawn),0.529%
12,CN(CC(=O)Nc1ccc(F)c(F)c1F)C(=O)CC1CCCCC1,5.61%
13,CCCCN(C(=O)c1ccc(N2CCCC2=O)cc1)c1c(N)n(CCCC)c(=O)[nH]c1=O,1.89%
14,CCn1c(CNC(=O)c2ccccc2Br)nnc1SCC(=O)NC1=NCCS1,15.7%
15,NNC(=O)C(=O)Nc1ccc(Cl)c(Cl)c1,10.8%
16,COc1ccc(N2CCN(C(=O)NC(=O)c3ccc(Cl)cc3)CC2)cc1,6.97%
17,COc1ccc(C2C(C(C)=O)=C(O)C(=O)N2CCc2c[nH]c3ccccc23)cc1OC (stereo not drawn),18.2%
18,COc1ccc(-c2csc3ncnc(N4CCN(c5cccc(C)c5C)CC4)c23)cc1,13.6%
19,CC1(c2nnc(Cc3ccccc3)o2)CC(c2ccc(C#N)cc2)=NO1 (stereo not drawn),-48.1%

row,Structure (SMILES),"hERG current change (%, negative = inhibition) at 1uM"
1,COc1ccc(NC(=O)C/C(C)=N/NC(=O)COc2ccc(OC)cc2)cc1,8.37%
2,CC(C)OCCCNc1ncc2c(n1)CC(c1ccccc1)CC2=O (stereo not drawn),-4.95%
3,O=C(O)C1CC(=O)N(Cc2cccs2)C1 (stereo not drawn),27%
4,CCOc1cc(S(=O)(=O)N2CCN(CC)CC2)ccc1Cl,6.75%
5,CN1/C(=C/C2CC(=O)N(c3ccc([N+](=O)[O-])cc3)C2=O)C(C)(C)c2ccccc21 (stereo not drawn),-5.44%
6,CS(=O)(=O)N(CC(=O)N1CCCC1)c1ccc2c(c1)OCCO2,-20.8%
7,CN(C)S(=O)(=O)c1ccc(C(=O)Nc2ccccc2OC(F)(F)C(F)F)cc1,-16.3%
8,O=C(CCNS(=O)(=O)c1ccccc1C(F)(F)F)NNC(=O)c1csc(N2CCOCC2)n1,0.442%
9,COc1ccc(-n2cnnc2SCC(=O)Nc2cccc(S(N)(=O)=O)c2)cc1,16.7%
10,Cc1cc(OC(=O)C(C)(C)C)c([N+](=O)[O-])c(=O)[nH]1,14.3%
11,COc1ccc(C(=O)NC2CCN(Cc3ccccc3)C2)cc1S(=O)(=O)N1CCOCC1 (stereo not drawn),7.5%
12,O=C(NC1CCCCC1)C(c1ccccn1)N(C(=O)c1csnn1)C1CCCCC1 (stereo not drawn),13.4%
13,CCCC(=O)Nc1ccc(S(=O)(=O)N2CCOCC2)cc1,9.69%
14,Cc1ccc(OCc2nnc(SCCN3CCOCC3)n2C)cc1.O=C(O)C(=O)O,8.12%
15,COc1cccc(C(=O)OCC(=O)c2c(N)n(C)c(=O)n(C)c2=O)c1,5.26%
16,CC(=O)c1c(C)[nH]c(C(=O)N2CCN(c3ccccn3)CC2)c1C,11.1%
17,COc1ccccc1Cn1c(=S)[nH]c2cc(C(=O)NCCCN3CCOCC3)ccc2c1=O,9.52%
18,O=C(Cc1ccccc1)N/N=C/c1ccc[nH]1,13.2%
19,CCN(CC)S(=O)(=O)c1cccc(C(=O)NCC(c2ccccc2)N(C)C)c1 (stereo not drawn),-0.959%

row,Structure (SMILES),"hERG current change (%, negative = inhibition) at 1uM"
1,CC(C(=O)NC1CCCC1)N(C(=O)Cn1nnc(-c2ccc(F)cc2)n1)c1ccccc1F (stereo not drawn),12.6%
2,CC(C)n1c(SCC(=O)c2ccc3c(c2)OCCO3)nc2c1c(=O)n(C)c(=O)n2C,8.41%
3,O=C(Nc1cc(S(=O)(=O)N2CCCC2)ccc1OCC(F)(F)F)c1ccccc1F,16.1%
4,CC(C)(C)C(=O)CC(=O)Nc1ccc(Cl)c(N)c1,18.6%
5,CCOc1ccc2nc3c(cc2c1)CN(CCOC)C(=NCCOC)S3,-0.794%
6,Clc1ccc(-c2nnc(CCc3ccccc3)o2)c(Cl)c1,3.41%
7,CCOc1ccccc1/C=C/c1onc(C)c1S(=O)(=O)N1CCC(C(=O)NC)CC1,1.45%
8,CC(C)CNC(=O)Cn1c(=O)c2c(ncn2CC(C)C)n(Cc2ccccc2)c1=O,12.3%
9,CC1CN(C(=O)CCC(=O)N2CCCCC2)c2ccccc2O1 (stereo not drawn),11.1%
10,CC(=O)c1cccc(-n2c(CCC(=O)O)ccc2-c2ccccc2)c1,15%
11,COc1cccc(N2CCN(CC(=O)Nc3ccc(-n4cnnn4)cc3)CC2)c1,14.1%
12,CN(C)CCNc1ncnc2sc(-c3ccccc3)cc12,9.8%
13,CN(C)c1c(F)cc(C(=O)NC(=O)NCc2cccnc2)cc1F,10.5%
14,COc1ccc(C(=O)NC2CCN(CC(=O)N3CCCCC3)CC2)cc1,15.6%
15,COC(=O)C1=C(C)Nc2nnnn2C1c1ccc(Cl)cc1Cl (stereo not drawn),3.29%
16,Cc1cccc(NC(=O)c2cnn(-c3ccccc3)c2C)c1C,10.2%
17,CCCCCc1n[nH]c2c1CCCC2,9.3%
18,CCc1ccc(-c2csc(NC(=O)COC(=O)CCc3nc4ccccc4s3)n2)cc1,2.9%
19,Cc1oc(-c2ccccc2Cl)nc1CSCC(=O)NC1CCCC1,0.667%
